# According to the supplement of paper PMC8728848:
# This is one part of the list.
# Tests used:
# Assay in all cases: glycan array binding signal (z-score within array); higher = stronger binding
# Details in all cases: glycan notation: IUPAC condensed, linker removed
# Fuc(a1-2)Gal = target: Fuc(a1-2)Gal
# Summary of the method: (§1)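 The binding signal is a Z-score computed within each array and averaged over linkers. Arrays of the same protein sequence at different concentrations or buffers were also averaged together. Data originate from 3228 arrays in the Consortium for Functional Glycomics database, kept only where the protein sequence was available.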
# Fuc(a1-2)Gal(b1-3)GalNAc = target: Fuc(a1-2)Gal(b1-3)GalNAc
# Summary of the method: as §1
# [1] = target: Fuc(a1-2)Gal(b1-3)GalNAc(b1-3)Gal
# Summary of the method: as §1
# [2] = target: Fuc(a1-2)Gal(b1-3)GalNAc(b1-3)Gal(a1-4)Gal(b1-4)Glc
# Summary of the method: as §1
# [3] = target: Fuc(a1-2)Gal(b1-3)GalNAc(b1-4)[Neu5Ac(a2-3)]Gal(b1-4)Glc
# Summary of the method: as §1
# Fuc(a1-2)Gal(b1-3)GlcNAc = target: Fuc(a1-2)Gal(b1-3)GlcNAc
# Summary of the method: as §1
# [4] = target: Fuc(a1-2)Gal(b1-3)GlcNAc(b1-3)Gal(b1-4)Glc
# Summary of the method: as §1
# [5] = target: Fuc(a1-2)Gal(b1-3)[Fuc(a1-4)]GlcNAc
# Summary of the method: as §1
# Fuc(a1-2)Gal(b1-4)Glc = target: Fuc(a1-2)Gal(b1-4)Glc
# Summary of the method: as §1
# Fuc(a1-2)Gal(b1-4)Glc6S = target: Fuc(a1-2)Gal(b1-4)Glc6S
# Summary of the method: as §1
# Fuc(a1-2)Gal(b1-4)GlcNAc = target: Fuc(a1-2)Gal(b1-4)GlcNAc
# Summary of the method: as §1
# [6] = target: Fuc(a1-2)Gal(b1-4)GlcNAc(b1-3)Gal(b1-4)GlcNAc
# Summary of the method: as §1
# [7] = target: Fuc(a1-2)Gal(b1-4)GlcNAc(b1-3)Gal(b1-4)GlcNAc(b1-3)Gal(b1-4)GlcNAc
# Summary of the method: as §1
# [8] = target: Fuc(a1-2)Gal(b1-4)GlcNAc6S
# Summary of the method: as §1
# [9] = target: Fuc(a1-2)Gal(b1-4)[Fuc(a1-3)]GlcNAc
# Summary of the method: as §1
# [10] = target: Fuc(a1-2)Gal(b1-4)[Fuc(a1-3)]GlcNAc(b1-3)Gal(b1-4)[Fuc(a1-3)]GlcNAc
# Summary of the method: as §1
# [11] = target: Fuc(a1-2)Gal(b1-4)[Fuc(a1-3)]GlcNAc(b1-3)Gal(b1-4)[Fuc(a1-3)]GlcNAc(b1-3)Gal(b1-4)[Fuc(a1-3)]GlcNAc
# Summary of the method: as §1
# Fuc(a1-2)Gal6S(b1-4)Glc = target: Fuc(a1-2)Gal6S(b1-4)Glc
# Summary of the method: as §1
# [12] = target: Fuc(a1-2)Gal6S(b1-4)Glc6S
# Summary of the method: as §1
# [13] = target: Fuc(a1-2)Gal6S(b1-4)GlcNAc
# Summary of the method: as §1
# Fuc(a1-2)GlcNAc = target: Fuc(a1-2)GlcNAc
# Summary of the method: as §1
# Fuc(a1-2)[Gal(a1-3)]Gal = target: Fuc(a1-2)[Gal(a1-3)]Gal
# Summary of the method: as §1
# [14] = target: Fuc(a1-2)[Gal(a1-3)]Gal(b1-3)GlcNAc
# Summary of the method: as §1
# [15] = target: Fuc(a1-2)[Gal(a1-3)]Gal(b1-4)Glc
# Summary of the method: as §1
# [16] = target: Fuc(a1-2)[Gal(a1-3)]Gal(b1-4)GlcNAc
# Summary of the method: as §1
# [17] = target: Fuc(a1-2)[Gal(a1-3)]Gal(b1-4)[Fuc(a1-3)]GlcNAc
# Summary of the method: as §1
# [18] = target: Fuc(a1-2)[Gal(a1-4)]Gal(b1-4)GlcNAc
# Summary of the method: as §1
# [19] = target: Fuc(a1-2)[GalNAc(a1-3)]Gal
# Summary of the method: as §1
# [20] = target: Fuc(a1-2)[GalNAc(a1-3)]Gal(b1-3)GlcNAc
# Summary of the method: as §1
# [21] = target: Fuc(a1-2)[GalNAc(a1-3)]Gal(b1-4)Glc
# Summary of the method: as §1
# [22] = target: Fuc(a1-2)[GalNAc(a1-3)]Gal(b1-4)GlcNAc
# Summary of the method: as §1
# [23] = target: Fuc(a1-2)[GalNAc(a1-3)]Gal(b1-4)[Fuc(a1-3)]GlcNAc
# Summary of the method: as §1
# [24] = target: Fuc(a1-2)[GalNAc(a1-4)]Gal(b1-4)GlcNAc
# Summary of the method: as §1
# [25] = target: Fuc(a1-2)[GalNAc(b1-3)]Gal
# Summary of the method: as §1
# Fuc(a1-3)GlcNAc = target: Fuc(a1-3)GlcNAc
# Summary of the method: as §1
# [26] = target: Fuc(a1-3)[Gal(b1-4)]Glc6S
# Summary of the method: as §1
# [27] = target: Fuc(a1-3)[Gal(b1-4)]GlcNAc
# Summary of the method: as §1
# [28] = target: Fuc(a1-3)[Gal(b1-4)]GlcNAc(b1-2)Man(a1-3)[Fuc(a1-3)[Gal(b1-4)]GlcNAc(b1-2)Man(a1-6)]Man(b1-4)GlcNAc(b1-4)GlcNAc
# Summary of the method: as §1
# [29] = target: Fuc(a1-3)[Gal(b1-4)]GlcNAc(b1-2)Man(a1-6)[Gal(b1-4)GlcNAc(b1-2)Man(a1-3)]Man(b1-4)GlcNAc(b1-4)GlcNAc
# Summary of the method: as §1
# [30] = target: Fuc(a1-3)[Gal(b1-4)]GlcNAc(b1-3)Gal(b1-3)[Fuc(a1-4)]GlcNAc
# Summary of the method: as §1
# [31] = target: Fuc(a1-3)[Gal(b1-4)]GlcNAc(b1-4)Gal(b1-4)[Fuc(a1-3)]GlcNAc
# Summary of the method: as §1
# [32] = target: Fuc(a1-3)[Gal(b1-4)]GlcNAc(b1-4)Gal(b1-4)[Fuc(a1-3)]GlcNAc(b1-4)Gal(b1-4)[Fuc(a1-3)]GlcNAc
# Summary of the method: as §1
# [33] = target: Fuc(a1-3)[Gal(b1-4)]GlcNAc6S
# Summary of the method: as §1
# [34] = target: Fuc(a1-3)[Gal3S(b1-4)]Glc6S
# Summary of the method: as §1
# [35] = target: Fuc(a1-3)[Gal3S(b1-4)]GlcNAc
# Summary of the method: as §1
# [36] = target: Fuc(a1-3)[Gal3S(b1-4)]GlcNAc6S
# Summary of the method: as §1
# [37] = target: Fuc(a1-3)[GalNAc(b1-4)]GlcNAc
# Summary of the method: as §1
# Fuc(a1-4)GlcNAc = target: Fuc(a1-4)GlcNAc
# Summary of the method: as §1
# Fuc(b1-3)GlcNAc = target: Fuc(b1-3)GlcNAc
# Summary of the method: as §1
# Gal(a1-2)Gal = target: Gal(a1-2)Gal
# Summary of the method: as §1
# Gal(a1-3)Gal = target: Gal(a1-3)Gal
# Summary of the method: as §1
# Gal(a1-3)Gal(b1-3)GlcNAc = target: Gal(a1-3)Gal(b1-3)GlcNAc
# Summary of the method: as §1
# Gal(a1-3)Gal(b1-4)Glc = target: Gal(a1-3)Gal(b1-4)Glc
# Summary of the method: as §1
# Gal(a1-3)Gal(b1-4)GlcNAc = target: Gal(a1-3)Gal(b1-4)GlcNAc
# Summary of the method: as §1
# [38] = target: Gal(a1-3)Gal(b1-4)[Fuc(a1-3)]GlcNAc
# Summary of the method: as §1
# Gal(a1-3)GalNAc = target: Gal(a1-3)GalNAc
# Summary of the method: as §1
# [39] = target: Gal(a1-3)[Gal(a1-4)]Gal(b1-4)GlcNAc
# Summary of the method: as §1
# Gal(a1-4)Gal(b1-4)Glc = target: Gal(a1-4)Gal(b1-4)Glc
# Summary of the method: as §1
# Gal(a1-4)Gal(b1-4)GlcNAc = target: Gal(a1-4)Gal(b1-4)GlcNAc
# Summary of the method: as §1
# Gal(a1-4)GlcNAc = target: Gal(a1-4)GlcNAc
# Summary of the method: as §1
binder,measurement,setting,value
"E-Selectin (Mus musculus), Q00690 (protein) MNASRFLSALVFVLLAGESTAWYYNASSELMTYDEASAYCQRDYTHLVAIQNKEEINYLNSNLKHSPSYYWIGIRKVNNVWIWVGTGKPLTEEAQNWAPGEPNNKQRNEDCVEIYIQRTKDSGMWNDERCNKKKLALCYTASCTNASCSGHGECIETINSYTCKCHPGFLGPNCEQAVTCKPQEHPDYGSLNCSHPFGPFSYNSSCSFGCKRGYLPSSMETTVRCTSSGEWSAPAPACHVVECEALTHPAHGIRKCSSNPGSYPWNTTCTFDCVEGYRRVGAQNLQCTSSGIWDNETPSCKAVTCDAIPQPQNGFVSCSHSTAGELAFKSSCNFTCEQSFTLQGPAQVECSAQGQWTPQIPVCKAVQCEALSAPQQGNMKCLPSASGPFQNGSSCEFSCEEGFELKGSRRLQCGPRGEWDSKKPTCSAVKCDDVPRPQNGVMECAHATTGEFTYKSSCAFQCNEGFSLHGSAQLECTSQGKWTQEVPSCQVVQCPSLDVPGKMNMSCSGTAVFGTVCEFTCPDDWTLNGSAVLTCGATGRWSGMPPTCEAPVSPTRPLVVALSAAGTSLLTSSSLLYLLMRYFRKKAKKFVPASSCQSLQSFENYHVPSYNV",glycan array binding signal (z-score),Fuc(a1-2)Gal,-0.286
same,glycan array binding signal (z-score),Fuc(a1-2)Gal(b1-3)GalNAc,-0.324
same,glycan array binding signal (z-score),[1],-0.298
same,glycan array binding signal (z-score),[2],-0.186
same,glycan array binding signal (z-score),[3],-0.301
same,glycan array binding signal (z-score),Fuc(a1-2)Gal(b1-3)GlcNAc,-0.312
same,glycan array binding signal (z-score),[4],-0.289
same,glycan array binding signal (z-score),[5],1.34
same,glycan array binding signal (z-score),Fuc(a1-2)Gal(b1-4)Glc,-0.252
same,glycan array binding signal (z-score),Fuc(a1-2)Gal(b1-4)Glc6S,-0.186
same,glycan array binding signal (z-score),Fuc(a1-2)Gal(b1-4)GlcNAc,-0.339
same,glycan array binding signal (z-score),[6],-0.345
same,glycan array binding signal (z-score),[7],-0.255
same,glycan array binding signal (z-score),[8],-0.158
same,glycan array binding signal (z-score),[9],1.22
same,glycan array binding signal (z-score),[10],0.625
same,glycan array binding signal (z-score),[11],0.391
same,glycan array binding signal (z-score),Fuc(a1-2)Gal6S(b1-4)Glc,-0.22
same,glycan array binding signal (z-score),[12],-0.213
same,glycan array binding signal (z-score),[13],-0.273
same,glycan array binding signal (z-score),Fuc(a1-2)GlcNAc,-0.342
same,glycan array binding signal (z-score),Fuc(a1-2)[Gal(a1-3)]Gal,-0.265
same,glycan array binding signal (z-score),[14],-0.355
same,glycan array binding signal (z-score),[15],-0.336
same,glycan array binding signal (z-score),[16],-0.317
same,glycan array binding signal (z-score),[17],-0.324
same,glycan array binding signal (z-score),[18],-0.29
same,glycan array binding signal (z-score),[19],-0.217
same,glycan array binding signal (z-score),[20],-0.359
same,glycan array binding signal (z-score),[21],-0.349
same,glycan array binding signal (z-score),[22],-0.345
same,glycan array binding signal (z-score),[23],-0.142
same,glycan array binding signal (z-score),[24],-0.301
same,glycan array binding signal (z-score),[25],-0.306
same,glycan array binding signal (z-score),Fuc(a1-3)GlcNAc,-0.259
same,glycan array binding signal (z-score),[26],1.71
same,glycan array binding signal (z-score),[27],0.986
same,glycan array binding signal (z-score),[28],0.554
same,glycan array binding signal (z-score),[29],0.7
same,glycan array binding signal (z-score),[30],0.718
same,glycan array binding signal (z-score),[31],0.598
same,glycan array binding signal (z-score),[32],0.61
same,glycan array binding signal (z-score),[33],0.444
same,glycan array binding signal (z-score),[34],5.1
same,glycan array binding signal (z-score),[35],1.91
same,glycan array binding signal (z-score),[36],2.52
same,glycan array binding signal (z-score),[37],0.563
same,glycan array binding signal (z-score),Fuc(a1-4)GlcNAc,-0.361
same,glycan array binding signal (z-score),Fuc(b1-3)GlcNAc,-0.373
same,glycan array binding signal (z-score),Gal(a1-2)Gal,-0.326
same,glycan array binding signal (z-score),Gal(a1-3)Gal,-0.229
same,glycan array binding signal (z-score),Gal(a1-3)Gal(b1-3)GlcNAc,-0.371
same,glycan array binding signal (z-score),Gal(a1-3)Gal(b1-4)Glc,-0.33
same,glycan array binding signal (z-score),Gal(a1-3)Gal(b1-4)GlcNAc,-0.309
same,glycan array binding signal (z-score),[38],-0.34
same,glycan array binding signal (z-score),Gal(a1-3)GalNAc,-0.302
same,glycan array binding signal (z-score),[39],-0.315
same,glycan array binding signal (z-score),Gal(a1-4)Gal(b1-4)Glc,-0.295
same,glycan array binding signal (z-score),Gal(a1-4)Gal(b1-4)GlcNAc,-0.318
same,glycan array binding signal (z-score),Gal(a1-4)GlcNAc,-0.337
